# In all, about 340,000 compounds went through this assay and about 12,000 (3.5%) were called active. Inconclusive means that the source gave no clear call. Such entries were picked first, then a sample of the others. Calls come from the whole dose curve; as a rule, active = well fitted inhibition curve with a large enough effect; inconclusive = small, poorly fitted or top-dose-only effect, or another doubt; inactive = no such curve, though single readings can be large or run the other way. Potencies of inconclusive entries are left out as doubtful fits.
# Test: qHTS Assay for Inhibitors of Hepatitis C Virus (HCV)
# Conditions: Huh7.5.1 HCVcc-Cre (HCVcc is cell-culture hepatitis C virus) infection, luciferase reporter, 44 h; activity change, negative = inhibition: at 41.8 µM (top of the series)
# In short: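 Luciferase read-out (15 sec integration) after a 15 min room-temperature substrate step quantifies HCVcc-Cre infection. Cells, 1,000 per well, had compound added 4 h post-plating, then virus at ~0.5 moi, and were cultured 44 h.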
# % is set by controls: 0 for no effect and ±100 for the full control effect; potency is the fitted concentration of half-maximal effect; tags give direction and shape of the fitted curve.
Compound,Potency,"activity change, negative = inhibition"
Cc1ccccc1N/N=C/c1ccc(N2CCOCC2)cc1,"inconclusive [inhibitor, single point]",
CCCN(CC(=O)Nc1ccc(F)c(F)c1F)Cc1cc(=O)n2ccsc2n1,"inconclusive [inhibitor, single point]",
CC(=O)Nc1cccc(NC(=O)Nc2ccc(C(C)=O)cc2)c1,"inconclusive [inhibitor, single point]",
O=C(CSc1ccc(Cl)cc1)N1CCN(c2ncc(C(F)(F)F)cc2Cl)CC1,"inconclusive [inhibitor, single point]",
Cn1cnnc1SCc1ccc(-c2ccc(Br)cc2)o1,"inconclusive [inhibitor, single point]",
COc1ccc(C(CNC(=O)C(C)Oc2ccc(Br)cc2)N2CCCC2)cc1 (stereo not given),"inconclusive [inhibitor, single point]",
Nc1ccccc1Sc1nc2ccccc2[nH]1,"inconclusive [inhibitor, full curve]",
COc1ccc(S(=O)(=O)n2nc(C)cc2C)cc1OC,,inactive: 2.42%
COc1ccc2c(c1)C(=O)N(c1ccccc1OC)C(=O)C2(C)C,,inactive: -16.8%
Cc1ccc(C)c2[nH]c(=O)c(CN(Cc3cccs3)C(=S)NCc3ccco3)cc12,,inactive: -6.69%
CC(=O)Nc1c(C(=O)Nc2ccc3c(c2)OCO3)oc2ccccc12,,inactive: -9.31%
Cc1csc(NC(=O)CSc2nnc(-c3ccoc3C)o2)n1,"inconclusive [inhibitor, single point]",
CC(C)N(Cc1nnc(-c2ccccc2Br)o1)C(=O)c1cc(Cl)nc2ccccc12,"inconclusive [inhibitor, single point]",
CC(C)(C)C(=O)Nc1ccc(C(=O)N/N=C/c2ccccc2OC(=O)c2ccc(Cl)cc2)cc1,active: 10 µM,
COc1ccc(C2CC(=O)C=C(NCc3ccc4c(c3)OCO4)C2)cc1 (stereo not given),"inconclusive [inhibitor, single point]",
COc1cccc(C(=O)NNC(=O)C(=O)Nc2ccc(OC)cc2OC)c1,"inconclusive [inhibitor, partial curve, poor fit]",
Cc1c(Nc2cc(Cl)c3nonc3c2[N+](=O)[O-])c(=O)n(-c2ccccc2)n1C,active: 3.98 µM,
COc1ccc(Cn2c(O)c(C=NCCCn3ccnc3)c(=O)[nH]c2=O)cc1,"inconclusive [inhibitor, single point]",
CC(=O)Nc1cccc(Oc2nc(C)cc(C)c2C#N)c1,"inconclusive [inhibitor, single point]",
CCOC(=O)c1sc(Nc2ccc(Br)cc2)nc1C,,inactive: 7.61%
O=C1c2cccc3c([N+](=O)[O-])ccc(c23)C(=O)N1c1ccc(Cl)cn1,active: 10 µM,
CCCN1C(=O)c2cc(C(=O)Nc3ccccc3OC)ccc2C1Nc1ccccc1OC (stereo not given),active: 11.2 µM,
CN(Cc1c(F)cccc1Cl)C(=O)c1cnc2ccccc2n1,,inactive: 0.942%

Compound,Potency,"activity change, negative = inhibition"
COc1ccc(NC(=O)c2cccc(N3C(=O)C4C5C=CC(C5)C4C3=O)c2)cc1Cl (stereo not given),active: 10 µM,
Fc1ccccc1NC(=S)NNc1ncc(C(F)(F)F)cc1Cl,"inconclusive [inhibitor, single point]",
COc1ccc(-c2[nH]ncc2CNCCCSC)cc1F,,inactive: 9.42%
Cc1cc(C(=O)N=Nc2c(O)n(C(C)C)c3ccccc23)n[nH]1,"inconclusive [inhibitor, single point]",
Cc1ccc(OCCC(=O)OCC(=O)NC(=O)c2ccccc2)cc1,"inconclusive [inhibitor, single point]",
CCc1cc2c(NCc3ccco3)ncnc2s1,active: 15.8 µM,
Cc1cc(C)c(C)c(S(=O)(=O)N2CCN(CC(=O)Nc3sccc3C#N)CC2)c1C,"inconclusive [inhibitor, single point]",
CC(C(=O)N1CCCC1)N1CCN(S(=O)(=O)c2ccc(C(C)(C)C)cc2)CC1 (stereo not given),,inactive: 0.874%
O=C1C2C3c4ccccc4C(c4ccccc43)C2C(=O)N1c1ccncc1 (stereo not given),"inconclusive [inhibitor, single point]",
O=[N+]([O-])c1ccc(NC(c2ccccc2)c2ccc3cccnc3c2O)cc1 (stereo not given),"inconclusive [inhibitor, partial curve, poor fit]",
CC(C)CC(=O)Nc1cccc(NC(=O)c2ccccc2Cl)c1,"inconclusive [inhibitor, full curve]",
COC(=O)c1ccccc1NC(=O)c1cn(-c2ccc(C)c(C)c2)c(=O)c2ccccc12,"inconclusive [inhibitor, partial curve]",
C=C(C(=O)Oc1ccccc1C(C)(C)C)c1ccccc1,"inconclusive [inhibitor, single point]",
Cc1cc(C(=O)COc2ccc([N+](=O)[O-])cc2)c(C)n1C1CC1,"inconclusive [inhibitor, partial curve]",
COc1cc(OC)c(N(C)S(=O)(=O)c2cccc(C(=O)NC(C)C3CC4CCC3C4)c2)cc1Cl (stereo not given),"inconclusive [inhibitor, partial curve]",
COc1ccc(O)c(/C=N/NS(=O)(=O)c2ccc(C)cc2)c1,,inactive: 14%
CC(C)(C)c1ccc(C(=O)C2CCCN(C(=O)c3ccccn3)C2)cc1 (stereo not given),"inconclusive [inhibitor, single point]",
CN(C)C(=O)COc1ccc(C(=O)/C=C/c2cccnc2)cc1,"inconclusive [inhibitor, single point]",
CSCCC(NC(=O)c1ccco1)C(=O)NCCc1ccc(F)cc1 (stereo not given),,inactive: 6%
C[C@H](CO)N1C[C@H](C)[C@@H](CN(C)Cc2ccc(Cl)c(Cl)c2)Oc2c(NC(=O)C3CC3)cccc2C1=O,"inconclusive [inhibitor, partial curve]",
C/C=C/Cn1c(SCCCc2ccccc2)nc2c1c(=O)[nH]c(=O)n2C,"inconclusive [inhibitor, single point]",
Cn1c(SCC(=O)OC2CCCCC2)nnc1-c1ccco1,,inactive: 3.6%

# Source: PubChem BioAssay AID651820 (National Center for Advancing Translational Sciences (NCATS), 2012)
